# From the BET-seq Pho4 binding data (Le et al. 2018)
# The other results are listed elsewhere or left out. Values were computed here from the reads of four pooled replicates and scatter widely.
# Biological target: T1, Pho4 (S. cerevisiae) (UniProt P07270)
# T1 sequence: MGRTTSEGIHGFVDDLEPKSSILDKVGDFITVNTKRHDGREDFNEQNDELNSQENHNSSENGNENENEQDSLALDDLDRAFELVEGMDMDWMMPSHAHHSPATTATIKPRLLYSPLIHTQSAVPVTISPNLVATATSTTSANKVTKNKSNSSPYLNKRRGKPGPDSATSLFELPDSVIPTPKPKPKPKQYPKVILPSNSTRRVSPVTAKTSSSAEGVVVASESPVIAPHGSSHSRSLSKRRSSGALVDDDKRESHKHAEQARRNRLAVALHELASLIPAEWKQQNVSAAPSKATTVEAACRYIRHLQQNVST
# Experiment: relative binding free energy (BET-seq); higher = weaker binding
# Conditions: reference: library average
row,Sequence,relative binding free energy
1,GAACGCACGTGATGGG,0.06 kcal/mol
2,CGTTGCACGTGGGTCA,-0.07 kcal/mol
3,AGTGGCACGTGGTAAA,-0.21 kcal/mol
4,TTGCACACGTGAGGAG,0.4 kcal/mol
5,TTGCCCACGTGGGTTG,-0.26 kcal/mol
6,ATGCACACGTGGTGGG,-0.12 kcal/mol
7,TTCTTCACGTGAATTT,0.35 kcal/mol
8,TCATGCACGTGGGAGT,-0.11 kcal/mol
9,CTGGGCACGTGGGGTT,-0.25 kcal/mol
10,AGATACACGTGGGGAT,-0.19 kcal/mol
11,TTGTTCACGTGCTCGA,0.2 kcal/mol
12,GCAGGCACGTGGGGGA,-0.16 kcal/mol
13,GTCGGCACGTGTTAAG,-0.01 kcal/mol
14,TCAGGCACGTGCGAGG,-0.08 kcal/mol
15,AGGGTCACGTGAATGG,0.17 kcal/mol
16,TTGTGCACGTGATATA,0.13 kcal/mol
17,TTGTACACGTGTGACT,0.07 kcal/mol
18,TTTGTCACGTGAGAAT,0.34 kcal/mol
19,CACGGCACGTGGGGGC,-0.27 kcal/mol
20,GGGTTCACGTGACGTA,0.42 kcal/mol
21,ATGTTCACGTGGGAGC,0.14 kcal/mol
22,AGGGGCACGTGCTGGT,-0.32 kcal/mol
23,GGTAGCACGTGTTTAT,-0.03 kcal/mol
24,TGGTTCACGTGTTCTA,0.29 kcal/mol
25,TGAATCACGTGGTTTA,0.17 kcal/mol

row,Sequence,relative binding free energy
1,GGTATCACGTGATTTA,0.33 kcal/mol
2,TATTGCACGTGAGATG,0.12 kcal/mol
3,GGTGTCACGTGCAGGT,0.14 kcal/mol
4,ATTTACACGTGGTTGC,0.02 kcal/mol
5,GTGGACACGTGGTCCG,-0.03 kcal/mol
6,GGGAACACGTGGGGGG,-0.09 kcal/mol
7,GTGCGCACGTGGTGGA,-0.09 kcal/mol
8,ACCGGCACGTGTTGTG,-0.04 kcal/mol
9,TATTTCACGTGTCAAT,0.24 kcal/mol
10,GTTGGCACGTGGAAAT,0.14 kcal/mol
11,GTTTTCACGTGGATGG,0.27 kcal/mol
12,GGATGCACGTGCGTAG,-0.16 kcal/mol
13,TGAGACACGTGGGCTG,-0.12 kcal/mol
14,TAGGGCACGTGGCTGA,-0.26 kcal/mol
15,TGTTTCACGTGGCGCG,0.27 kcal/mol
16,GATAGCACGTGTGGAT,0.11 kcal/mol
17,GCTTGCACGTGTATGT,0.03 kcal/mol
18,TACTTCACGTGCGTGT,0.35 kcal/mol
19,TTGGTCACGTGACATA,0.14 kcal/mol
20,TGAACCACGTGTGAGG,0.04 kcal/mol
21,ATTGGCACGTGCGGTT,-0.08 kcal/mol
22,GGGTACACGTGAAGGG,0.33 kcal/mol
23,ATGTGCACGTGTTCTA,-0.14 kcal/mol
24,CATAACACGTGGTGGA,0 kcal/mol
25,CTGATCACGTGCGGGT,0.23 kcal/mol

row,Sequence,relative binding free energy
1,CGTGTCACGTGTGTCG,0.05 kcal/mol
2,AGGGGCACGTGCGAAT,-0.16 kcal/mol
3,CGTGGCACGTGTGCGC,-0.07 kcal/mol
4,GAGTTCACGTGTGATG,0.5 kcal/mol
5,GTTCGCACGTGTTAGT,0.12 kcal/mol
6,GTTGTCACGTGATTTG,0.4 kcal/mol
7,TAACTCACGTGTTAGT,0.14 kcal/mol
8,TTGATCACGTGGTACA,0.14 kcal/mol
9,TCAGTCACGTGAGTGG,0.32 kcal/mol
10,TGATTCACGTGTTGTC,0.32 kcal/mol
11,GGAGGCACGTGCTGAG,-0.16 kcal/mol
12,ATGCGCACGTGTTGTA,-0.01 kcal/mol
13,GTGGGCACGTGCTGTG,-0.03 kcal/mol
14,CCGGTCACGTGGGGAT,0 kcal/mol
15,TCATTCACGTGCGGTG,0.29 kcal/mol
16,ACCGACACGTGGGTGG,0.07 kcal/mol
17,ATGAGCACGTGGACGG,-0.08 kcal/mol
18,CATGTCACGTGTGGAT,0.15 kcal/mol
19,GGTCTCACGTGTGGCT,0.24 kcal/mol
20,CAATGCACGTGGTGGC,-0.07 kcal/mol
21,TTGCACACGTGGCTTG,0 kcal/mol
22,AGTAACACGTGGGAAA,0.06 kcal/mol
23,AAGGTCACGTGATGTT,0.24 kcal/mol
24,TGTAACACGTGGTAAA,0.01 kcal/mol
25,TGTGGCACGTGGAAGT,0.02 kcal/mol

row,Sequence,relative binding free energy
1,GTGTCCACGTGTGCTT,0.04 kcal/mol
2,GATGGCACGTGCAGGT,-0.07 kcal/mol
3,CGTTTCACGTGGGAAT,0.35 kcal/mol
4,TTTGACACGTGGTGCC,-0.08 kcal/mol
5,TGGAACACGTGGGTTT,0.01 kcal/mol
6,AATGTCACGTGTGGAC,0.19 kcal/mol
7,TGACACACGTGGGGGG,-0.09 kcal/mol
8,GTGTTCACGTGACTAG,0.34 kcal/mol
9,AGTTGCACGTGGTGAC,-0.19 kcal/mol
10,CTTGGCACGTGGTTTG,-0.21 kcal/mol
11,TTAATCACGTGTGAGC,0.31 kcal/mol
12,AGCTTCACGTGGGGTC,0.21 kcal/mol
13,TGGTACACGTGTTAGC,0.14 kcal/mol
14,ATTATCACGTGGTACT,0.03 kcal/mol
15,TGGTGCACGTGTGCGT,-0.11 kcal/mol
16,CGGATCACGTGGTAGT,0.11 kcal/mol
17,AGCTTCACGTGGGGCT,0.07 kcal/mol
18,CATTGCACGTGAGGGT,0.16 kcal/mol
19,TAAGGCACGTGGGTAT,-0.07 kcal/mol
20,TCATTCACGTGGCGTT,0.23 kcal/mol
21,TGGCTCACGTGTTAGG,0.3 kcal/mol
22,ATAGGCACGTGTACTG,-0.13 kcal/mol
23,GATGACACGTGGTGAG,0.06 kcal/mol
24,CTGTTCACGTGATTTA,0.33 kcal/mol
25,GCTTGCACGTGTCGTG,-0.08 kcal/mol

row,Sequence,relative binding free energy
1,AATAACACGTGTGTTA,-0.03 kcal/mol
2,TTTATCACGTGCTATA,0.11 kcal/mol
3,AAAGGCACGTGTTTAT,-0.09 kcal/mol
4,ATGGACACGTGTGCGT,-0.27 kcal/mol
5,TATAACACGTGTTCGT,-0.08 kcal/mol
6,GAGCACACGTGGTGTA,0.09 kcal/mol
7,TGTTCCACGTGGTTGG,0.03 kcal/mol
8,TAAGTCACGTGAGTGG,0.31 kcal/mol
9,ATGGACACGTGTTTAG,-0.02 kcal/mol
10,TGTTGCACGTGTGAAG,0.09 kcal/mol
11,TATGACACGTGTGGTA,0.14 kcal/mol
12,GGGGACACGTGTTTCA,0.12 kcal/mol
13,TTAATCACGTGTTGGC,0.17 kcal/mol
14,TGGAACACGTGGGCTT,-0.15 kcal/mol
15,GGGTACACGTGTGTTA,0.09 kcal/mol
16,GTGGGCACGTGAGGCC,0.14 kcal/mol
17,TGGATCACGTGCGGCG,0.16 kcal/mol
18,TTATTCACGTGGGAGT,0.14 kcal/mol
19,ATAGTCACGTGATTTA,0.17 kcal/mol
20,TTTATCACGTGGAGTG,0.14 kcal/mol
21,TTAGCCACGTGGGAGG,-0.29 kcal/mol
22,TGGGGCACGTGTTCAT,-0.11 kcal/mol
23,GTTGTCACGTGTACAG,0.09 kcal/mol
24,AAGTACACGTGTTGTG,-0.02 kcal/mol
25,GGGAGCACGTGCAGTT,-0.08 kcal/mol

row,Sequence,relative binding free energy
1,AAGATCACGTGTTTTT,0.19 kcal/mol
2,TAGTGCACGTGAATGA,0.26 kcal/mol
3,TTTAACACGTGGATTT,0.11 kcal/mol
4,CTGTACACGTGAGGTA,0.17 kcal/mol
5,TTTCGCACGTGGGGAA,-0.13 kcal/mol
6,GAAGGCACGTGTTGAT,-0.14 kcal/mol
7,GAGTGCACGTGTTGGG,0.09 kcal/mol
8,GTTACCACGTGGTTGT,-0.04 kcal/mol
9,TGGATCACGTGGCCTG,0.15 kcal/mol
10,ACATTCACGTGGGTTT,0.17 kcal/mol
11,TGTTCCACGTGTGATG,-0.02 kcal/mol
12,ACGAGCACGTGTTGGG,0.02 kcal/mol
13,TCGATCACGTGGGGTT,0.02 kcal/mol
14,TTCATCACGTGGTCGG,0.18 kcal/mol
15,TGGCTCACGTGGAAGT,0.19 kcal/mol
16,AGCTTCACGTGCAGTG,0.35 kcal/mol
17,AGAGGCACGTGAAGTG,0.15 kcal/mol
18,ATGTGCACGTGGGCGG,-0.24 kcal/mol
19,TGCTTCACGTGAGTTT,0.35 kcal/mol
20,GTTTTCACGTGGGGAT,0.3 kcal/mol
21,TTTTTCACGTGAGCAG,0.33 kcal/mol
